From the supplement of paper PMC9046079
Counter-ions that a name gives are not always drawn. ± gives the standard deviation of the averaged measurements. The list shows a part of the results.

Experiments:
[1] = system: murine small intestinal organoids (ENR+CD Paneth differentiation); assay: cellular ATP (CellTiter-Glo 3D) relative to plate median (log10 fold change); higher = more viable cells; conditions: 6 d
[2] = system: murine small intestinal organoids (ENR+CD Paneth differentiation); assay: carbachol-stimulated secreted lysozyme activity relative to plate median (log10 fold change); higher = more Paneth cell lysozyme secretion; conditions: 6 d, carbachol 10 µM
[3] = system: murine small intestinal organoids (ENR+CD Paneth differentiation); assay: basal (non-stimulated) secreted lysozyme activity relative to plate median (log10 fold change); higher = more Paneth cell lysozyme secretion; conditions: 6 d
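Wherever basal (non-stimulated) secreted lysozyme activity relative to plate median is given: ISC-enriched organoid precursors grown as 2.5D pseudo-monolayer on Matrigel, compound given on day 0 and day 3, plate values LOESS-normalized before median fold change, three murine donors.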
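Wherever cellular ATP (CellTiter-Glo 3D) relative to plate median is given: 2.5D pseudo-monolayer culture of ISC-enriched organoids partly embedded atop Matrigel, compound added on day 0 and again on day 3, per-plate LOESS correction before median fold change.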

| SMILES | cellular ATP (log10) ([1]; 0.08 µM) | cellular ATP (log10) ([1]; 0.4 µM) | cellular ATP (log10) ([1]; 2 µM) | cellular ATP (log10) ([1]; 10 µM) | carbachol-stimulated secreted lysozyme activity (log10) ([2]; 0.08 µM) | carbachol-stimulated secreted lysozyme activity (log10) ([2]; 0.4 µM) | carbachol-stimulated secreted lysozyme activity (log10) ([2]; 2 µM) | carbachol-stimulated secreted lysozyme activity (log10) ([2]; 10 µM) | basal (log10) ([3]; 0.08 µM) | basal (log10) ([3]; 0.4 µM) | basal (log10) ([3]; 2 µM) | basal (log10) ([3]; 10 µM) |
| --- | --- | --- | --- | --- | --- | --- | --- | --- | --- | --- | --- | --- |
| COc1ccc([C@]2(C#N)CC[C@@H](C(=O)O)CC2)cc1OC1CCCC1 [Cilomilast] | -0.334 ± 0.094 | -0.338 ± 0.31 | -0.235 ± 0.078 | -0.192 ± 0.082 | 0.139 ± 0.33 | -0.15 ± 0.14 | -0.0699 ± 0.099 | -0.0244 ± 0.065 | 0.114 ± 0.27 | -0.0369 ± 0.012 | -0.00959 ± 0.11 | -0.0432 ± 0.084 |
| Cc1cccc(-c2[nH]ncc2-c2ccc3ncccc3n2)n1 | -0.222 ± 0.44 | 0.22 ± 0.47 | -0.173 ± 0.21 | -0.1 ± 0.77 | -0.0704 ± 0.13 | 0.187 ± 0.2 | 0.179 ± 0.15 | 0.00111 ± 0.031 | 0.107 ± 0.2 | 0.147 ± 0.16 | 0.0949 ± 0.042 | -0.0147 ± 0.069 |
| COc1ccc2c(c1)c(C1=C(c3c[nH]c4ccccc34)C(=O)NC1=O)cn2CCCN(C)C | 0.0208 ± 0.3 | -0.0357 ± 0.15 | 0.0578 ± 0.036 | -0.181 ± 0.48 | -0.0256 ± 0.05 | -0.0144 ± 0.083 | -0.032 ± 0.047 | -0.0193 ± 0.14 | -0.00531 ± 0.08 | 0.0131 ± 0.074 | 0.0909 ± 0.14 | -0.0917 ± 0.091 |
| CCOC(=O)C1=C(N)Oc2ccc(Br)cc2C1C(C#N)C(=O)OCC (stereo unspecified) | 0.534 ± 0.22 | 0.526 ± 0.031 | 0.554 ± 0.024 | 0.388 ± 0.11 | 0.156 ± 0.024 | 0.337 ± 0.3 | 0.153 ± 0.05 | 0.0469 ± 0.24 | 0.121 ± 0.05 | 0.137 ± 0.077 | 0.154 ± 0.033 | 0.132 ± 0.15 |
| CCc1cncnc1N1CCN(Cc2nc3ccc(C(F)(F)F)cc3[nH]2)CC1 | 0.261 ± 0.04 | 0.268 ± 0.13 | 0.302 ± 0.04 | -0.321 ± 0.22 | 0.144 ± 0.049 | 0.178 ± 0.24 | 0.239 ± 0.013 | -0.00164 ± 0.18 | 0.0751 ± 0.057 | 0.122 ± 0.14 | 0.198 ± 0.038 | 0.0341 ± 0.11 |
| COc1ccc2cccc(CCNC(C)=O)c2c1 [Agomelatine] | 0.106 ± 0.12 | 0.0808 ± 0.088 | -0.198 ± 0.36 | 0.0236 ± 0.012 | 0.0416 ± 0.03 | 0.147 ± 0.18 | -0.0551 ± 0.23 | 0.0287 ± 0.14 | 0.026 ± 0.046 | 0.0798 ± 0.067 | 0.0686 ± 0.077 | -0.0327 ± 0.046 |
| CO[C@H]1C[C@@H]2CC[C@@H](C)[C@@](O)(O2)C(=O)C(=O)N2CCCC[C@H]2C(=O)O[C@H]([C@H](C)C[C@@H]2CC[C@@H](OC(=O)C(C)(CO)CO)[C@H](OC)C2)CC(=O)[C@H](C)/C=C(\C)[C@@H](O)[C@@H](OC)C(=O)[C@H](C)C[C@H](C)/C=C/C=C/C=C/1C | 0.33 ± 0.51 | 0.358 ± 0.28 | 0.409 ± 0.23 | 0.292 ± 0.26 | 0.0869 ± 0.0064 | 0.104 ± 0.17 | 0.0967 ± 0.12 | -0.0545 ± 0.26 | 0.07 ± 0.081 | 0.143 ± 0.1 | 0.0842 ± 0.11 | 0.0412 ± 0.24 |
| CCc1c(C(=O)NCCc2ccc(N3CCCCC3)cc2)[nH]c2ccc(Cl)cc12 | 0.278 ± 0.29 | 0.0723 ± 0.079 | 0.362 ± 0.19 | 0.27 ± 0.1 | 0.157 ± 0.24 | 0.0444 ± 0.17 | 0.0386 ± 0.17 | 0.00914 ± 0.25 | 0.122 ± 0.13 | 0.0511 ± 0.022 | 0.0785 ± 0.051 | 0.0285 ± 0.037 |
| CN(C)CCc1c[nH]c2ccc(Cn3cncn3)cc12 [Rizatriptan Benzoate] | 0.224 ± 0.3 | -0.0744 ± 0.44 | 0.0613 ± 0.2 | -0.128 ± 0.069 | 0.264 ± 0.024 | 0.0177 ± 0.096 | -0.127 ± 0.07 | 0.043 ± 0.037 | 0.0536 ± 0.17 | 0.0174 ± 0.038 | -0.0247 ± 0.12 | 0.0299 ± 0.018 |
| Nc1nc(N)c2nc(-c3cccc(O)c3)c(-c3cccc(O)c3)nc2n1 | -0.301 ± 0.25 | 0.0821 ± 0.21 | -0.00427 ± 0.23 | -0.109 ± 0.08 | -0.024 ± 0.1 | 0.0654 ± 0.059 | 0.0288 ± 0.14 | -0.0352 ± 0.071 | 0.165 ± 0.27 | 0.0069 ± 0.03 | 0.017 ± 0.026 | -0.00553 ± 0.087 |
| CN(Cc1cnc2nc(N)nc(N)c2n1)c1ccc(C(=O)N[C@@H](CCC(=O)O)C(=O)O)cc1 [Methotrexate] | -0.615 ± 0.25 | -0.722 ± 0.52 | -0.701 ± 0.19 | -0.642 ± 0.38 | -0.203 ± 0.06 | -0.201 ± 0.025 | -0.25 ± 0.0079 | -0.227 ± 0.093 | -0.0969 ± 0.07 | -0.0382 ± 0.042 | -0.13 ± 0.051 | -0.0756 ± 0.085 |
| O=C(O)/C=C/c1ccc(Cn2ccnc2)cc1 [Ozagrel HCl] | 0.0494 ± 0.33 | 0.133 ± 0.25 | 0.183 ± 0.25 | 0.229 ± 0.26 | 0.0699 ± 0.18 | 0.107 ± 0.0014 | 0.145 ± 0.13 | 0.0316 ± 0.12 | 0.202 ± 0.24 | 5.96e-06 ± 0.03 | 0.0354 ± 0.031 | -0.00706 ± 0.094 |
| COc1cc2c(cc1OC)CN(CCc1ccc(NC(=O)c3cc(OC)c(OC)cc3NC(=O)c3cnc4ccccc4c3)cc1)CC2 [Tariquidar] | -0.101 ± 0.4 | -0.145 ± 0.41 | 0.346 ± 0.41 | 0.139 ± 0.39 | 0.1 ± 0.11 | 0.116 ± 0.09 | 0.0125 ± 0.048 | -0.0565 ± 0.0063 | 0.0434 ± 0.12 | 0.028 ± 0.07 | 0.0276 ± 0.053 | 0.139 ± 0.2 |
| CCOC(=O)c1ccc(NC2CCCCC2)c(N)c1 [Ferrostatin-1 (Fer-1)] | 0.312 ± 0.24 | 0.453 ± 0.2 | 0.215 ± 0.2 | -0.0457 ± 0.18 | 0.092 ± 0.049 | 0.191 ± 0.095 | 0.0779 ± 0.1 | -0.0324 ± 0.15 | 0.108 ± 0.072 | 0.116 ± 0.063 | 0.07 ± 0.079 | 0.0133 ± 0.093 |
| CN1C(=O)C(Cc2c[nH]c3ccccc23)NC1=S (stereo unspecified) [Necrostatin-1] | 0.102 ± 0.19 | 0.168 ± 0.41 | 0.0111 ± 0.31 | 0.137 ± 0.5 | 0.0193 ± 0.019 | -0.0489 ± 0.1 | 0.0116 ± 0.074 | 0.252 ± 0.086 | 0.0602 ± 0.099 | 0.02 ± 0.062 | 0.154 ± 0.23 | 0.057 ± 0.061 |
| Cc1cc(C(C)(C)C)c(O)c(C)c1CC1=NCCN1 [Oxymetazoline HCl] | 0.143 ± 0.069 | 0.118 ± 0.11 | -0.00656 ± 0.14 | 0.118 ± 0.1 | 0.168 ± 0.067 | 0.162 ± 0.078 | -0.0118 ± 0.021 | -0.0608 ± 0.047 | 0.0592 ± 0.022 | 0.0154 ± 0.051 | 0.0228 ± 0.051 | 0.00749 ± 0.071 |
| CC12CC3CC(C)(C1)CC(N)(C3)C2 [Memantine HCl] | 0.0833 ± 0.23 | 0.0723 ± 0.16 | -0.00737 ± 0.29 | 0.0769 ± 0.37 | 0.126 ± 0.17 | 0.0202 ± 0.014 | 0.0753 ± 0.12 | -0.00162 ± 0.07 | 0.0686 ± 0.082 | 0.00368 ± 0.012 | 0.106 ± 0.083 | -0.0472 ± 0.052 |
| CC(C)c1cc(-c2n[nH]c(=O)n2-c2ccc3c(ccn3C)c2)c(O)cc1O [Ganetespib (STA-9090)] | -1.45 ± 0.47 | -2.1 ± 0.15 | -1.72 ± 0.54 | -1.62 ± 0.56 | -0.347 ± 0.0059 | -0.33 ± 0.048 | -0.335 ± 0.0035 | -0.349 ± 0.042 | -0.141 ± 0.076 | -0.155 ± 0.078 | -0.15 ± 0.054 | -0.136 ± 0.073 |
